Among all 360,000 compounds or so, about 16,000 (4.4%) were called active. This list was built around the results that the source calls inconclusive (neither active nor inactive); the mix of calls is not that of the screen. Calls come from the whole dose curve; as a rule, active = well fitted inhibition curve with a large enough effect; inconclusive = small, poorly fitted or top-dose-only effect; inactive = no such curve, though single readings can be large or run the other way. Where the call is inconclusive, the potency comes from a doubtful curve fit.
Target: Bromodomain adjacent to zinc finger domain protein 2B (Homo sapiens) (UniProt Q9UIF8)
Test: qHTS Assay for Inhibitors of BAZ2B; note: nearly all actives have a fitted effect of over 60% in size
Conditions: AlphaScreen BAZ2B-H3K14Ac peptide displacement; series mostly up to 114 µM
Text: BAZ2B (bromodomain adjacent to zinc finger domain, 2B) belongs to a family of ubiquitously expressed bromodomain containing proteins, which biological function has not yet been elucidated. […] The interaction of BAZ2B with ISWI mediated by the BAZ1 motif has recently been described. […] The protocol is based on the AlphaScreen (PerkinElmer) displacement assay developed by NCGC [5], but uses the peptide ligand Biot-H3K14Ac, a high affinity binding partner for BAZ2B, in an AlphaScreen format. Although AlphaScreen has significant advantages with its utility in a variety of epigenetic target assays, the primary screening data provided in this deposition should be used with caution due to the prevalence of screening artifacts. The top compound concentration tested was 110uM in this assay, which increases number of actives and potential artifacts. An AlphaScreen counterscreen is highly recommended to be run against any putative actives to eliminate non-specific artifacts. Alternatively, one can use other AlphaScreen assays in PubChem to filter out promiscuous hits. Eberharter, A. et al. ACF1 improves the effectiveness of nucleosome mobilization by ISWI through PHD-histone contacts. The EMBO journal 23, 4029-4039. 2004. PMID: 15457208 [2] Jones, M.H. et al. A novel family of bromodomain genes. Genomics 63, 40-45. 2000. PMID: 10662543 [3] Yasgar, et al. Compound Management for Quantitative High-Throughput Screening. JALA. 2008 Apr;13(2):79-89. PMID: 18496600 [4] Inglese, et al. Quantitative high-throughput screening: a titration-based approach that efficiently identifies biological activities in large chemical libraries. Proc Natl Acad Sci. 1;103(31):11473-8. 2006. PMID: 16864780 [5] Quinn et al. A chemiluminescence-based method for identification of histone lysine methyltransferase inhibitors. Mol Biosyst 6(5): 782-8. 2010. PMID: 20567762 [6] Baell,Holloway. New substructure filters for removal of pan assay interference compounds (PAINS) from screening libraries and for their exclusion in bioassays. J Med Chem. 53(7):2719-40. 2010. PMID: 20131845 NIH Molecular Libraries Probe Production Network [MLPCN] NIH Chemical Genomics Center [NCGC] Structural Genomics Consortium (SGC) NIH Grant: 5U54 MH084681-02
To each well of a 1,536w plate, 2ul of BAZ2B protein (final 50nM) and 1ul biotinylated histone peptide acetylated at Lys14 [b-H3(5-23)K14Ac] (final 50nM) were added in 1x PBS buffer, pH 7.4, containing 0.01% Tween-20, using a nanoliter dispenser. Formation of a protein-peptide complex proceeded at room temperature for 30 min. A Kalypsys pin-tool was employed to transfer 23 nL of library compound solution in DMSO to each well. Following a 30 min incubation of the protein-peptide complex with compounds at room temperature, a mixture of 40 ug/mL each streptavidin-coated donor and nickel chelate acceptor AlphaScreen beads (final 10 ug/mL) were added in a 1ul dispense for a final volume of 4ul. A brief centrifugation followed (1000rpm, 1 min) and were then incubated protected from the light for 20 min at room temperature. Plates were read on an EnVision multilabel plate reader using the 1,536 plate HTS AlphaScreen aperture (excitation time 80 ms, measurement time 240 ms).
Potency is the fitted concentration of half-maximal effect; tags give direction and shape of the fitted curve.

Chain of UniProt Q9UIF8 (Q9UIF8 whole entry, looked up, the tested form may be a part): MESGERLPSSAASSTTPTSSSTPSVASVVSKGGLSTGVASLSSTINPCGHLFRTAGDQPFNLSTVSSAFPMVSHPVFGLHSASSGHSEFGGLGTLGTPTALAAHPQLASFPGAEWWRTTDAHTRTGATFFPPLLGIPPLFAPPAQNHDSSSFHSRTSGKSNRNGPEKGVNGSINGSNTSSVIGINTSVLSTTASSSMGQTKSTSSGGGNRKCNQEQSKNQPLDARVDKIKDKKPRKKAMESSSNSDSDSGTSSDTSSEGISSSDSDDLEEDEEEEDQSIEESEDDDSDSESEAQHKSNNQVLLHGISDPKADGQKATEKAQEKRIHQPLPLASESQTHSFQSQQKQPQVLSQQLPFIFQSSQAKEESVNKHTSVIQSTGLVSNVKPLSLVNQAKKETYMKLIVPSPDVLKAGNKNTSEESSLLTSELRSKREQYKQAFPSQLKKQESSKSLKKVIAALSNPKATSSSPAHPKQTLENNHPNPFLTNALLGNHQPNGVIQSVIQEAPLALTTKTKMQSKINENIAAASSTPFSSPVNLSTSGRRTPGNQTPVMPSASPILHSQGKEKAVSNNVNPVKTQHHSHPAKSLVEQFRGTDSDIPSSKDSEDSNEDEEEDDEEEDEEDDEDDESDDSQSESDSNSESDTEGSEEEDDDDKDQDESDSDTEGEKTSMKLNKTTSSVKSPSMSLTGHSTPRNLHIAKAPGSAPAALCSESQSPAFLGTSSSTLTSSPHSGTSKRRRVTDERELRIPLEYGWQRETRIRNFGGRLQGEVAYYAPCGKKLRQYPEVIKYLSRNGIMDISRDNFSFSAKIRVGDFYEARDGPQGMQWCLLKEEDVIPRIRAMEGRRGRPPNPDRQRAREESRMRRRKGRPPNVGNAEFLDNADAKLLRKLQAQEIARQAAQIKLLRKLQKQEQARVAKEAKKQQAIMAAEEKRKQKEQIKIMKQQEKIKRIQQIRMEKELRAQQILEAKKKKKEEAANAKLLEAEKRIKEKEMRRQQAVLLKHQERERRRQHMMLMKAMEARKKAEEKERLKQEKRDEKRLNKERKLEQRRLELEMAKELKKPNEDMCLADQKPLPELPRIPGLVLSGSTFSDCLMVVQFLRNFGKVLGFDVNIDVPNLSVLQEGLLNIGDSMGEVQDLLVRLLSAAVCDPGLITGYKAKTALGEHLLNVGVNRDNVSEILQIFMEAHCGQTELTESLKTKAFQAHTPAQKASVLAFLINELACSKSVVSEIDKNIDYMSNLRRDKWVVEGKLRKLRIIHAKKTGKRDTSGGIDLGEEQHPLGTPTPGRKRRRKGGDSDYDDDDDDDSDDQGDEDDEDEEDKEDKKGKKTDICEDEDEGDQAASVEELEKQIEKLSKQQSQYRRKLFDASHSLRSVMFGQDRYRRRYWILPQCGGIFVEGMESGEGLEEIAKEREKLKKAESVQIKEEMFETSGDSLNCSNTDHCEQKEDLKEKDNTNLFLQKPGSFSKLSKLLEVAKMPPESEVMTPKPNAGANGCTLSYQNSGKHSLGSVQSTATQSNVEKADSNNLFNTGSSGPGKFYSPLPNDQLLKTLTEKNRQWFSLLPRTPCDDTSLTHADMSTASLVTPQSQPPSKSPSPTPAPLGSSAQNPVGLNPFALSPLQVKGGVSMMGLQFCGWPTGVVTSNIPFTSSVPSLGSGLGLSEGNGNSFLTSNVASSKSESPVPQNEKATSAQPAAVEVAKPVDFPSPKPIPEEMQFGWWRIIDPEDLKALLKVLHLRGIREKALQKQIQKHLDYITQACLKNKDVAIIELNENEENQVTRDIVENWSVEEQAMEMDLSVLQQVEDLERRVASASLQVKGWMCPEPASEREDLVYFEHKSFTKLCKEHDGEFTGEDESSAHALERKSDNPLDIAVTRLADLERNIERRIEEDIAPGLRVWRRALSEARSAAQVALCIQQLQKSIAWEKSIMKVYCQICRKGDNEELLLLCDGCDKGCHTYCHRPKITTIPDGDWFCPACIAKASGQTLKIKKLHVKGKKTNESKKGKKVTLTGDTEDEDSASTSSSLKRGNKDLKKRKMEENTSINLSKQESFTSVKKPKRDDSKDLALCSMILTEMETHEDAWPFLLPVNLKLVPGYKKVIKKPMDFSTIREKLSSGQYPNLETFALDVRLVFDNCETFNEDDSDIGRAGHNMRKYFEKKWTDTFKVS

| SMILES | Potency |
| --- | --- |
| CCN(CC)S(=O)(=O)c1ccc(C(=O)NCCSc2c(-c3ccc(C)cc3)[nH]c3ccccc23)cc1 | inactive |
| Cc1ccc(C)c(Oc2cc(NN3CCCCC3)c([N+](=O)[O-])cc2[N+](=O)[O-])c1 | inconclusive: 5.62 µM [inhibitor, full curve, poor fit] |
| O=C(c1ccccc1-n1cccc1)N1N=C(C(F)F)CC1(O)C(F)F (centres undefined) | inconclusive: 44.7 µM [inhibitor, partial curve] |
| CCCCN(CCCC)c1ccc(C(=O)c2ccccc2C(=O)O)c(O)c1 | inconclusive: 89.1 µM [inhibitor, single point] |
| O=C(COC(=O)c1ccc(S(=O)(=O)Nc2ccccc2)cc1)NCc1ccco1 | inconclusive: 89.1 µM [inhibitor, single point] |
| CC1CC(C)CN(C(=O)c2ccc3c(c2)N(Cc2ccccc2)CCS3)C1 (centres undefined) | inconclusive: 39.8 µM [inhibitor, full curve] |
| Cc1cc(C(=O)Nc2ccccc2C(=O)O)oc1C | inconclusive: 89.1 µM [inhibitor, single point] |
| COc1cccc(OCc2cc(=O)n3c(-c4ccccc4)csc3n2)c1 | inconclusive: 89.1 µM [inhibitor, single point] |
| O=C(Nc1ccc2nn(-c3ccccc3)nc2c1)c1ccc(Br)o1 | inconclusive: 79.4 µM [inhibitor, single point] |
| CCOc1ccc(OCC(=O)Nc2nccs2)cc1 | inconclusive: 79.4 µM [inhibitor, single point] |
| O=C(Nc1ccc2oc(-c3ccncc3)nc2c1)c1ccco1 | inconclusive: 89.1 µM [inhibitor, single point] |
| OCCN(CC#CC(O)(c1ccccc1)c1ccccc1)CCO | inconclusive: 70.8 µM [inhibitor, partial curve] |
| Cc1cc(C(=O)COC(=O)C2=NN(c3ccccc3)C(=O)CC2)c(C)n1CC(F)(F)F | inconclusive: 70.8 µM [inhibitor, single point] |
| COc1ccc(CNC(=O)c2ccc3nc(CCc4ccccc4)oc3c2)c(OC)c1 | inactive |
| COc1ccc(-n2c(CN3CCN(c4ccccc4OC)CC3)nc3ccc([N+](=O)[O-])cc3c2=O)c(OC)c1 | inconclusive: 79.4 µM [inhibitor, single point] |
| O=C(Nc1ccc(N2CCOCC2)c(Cl)c1)c1ncn[nH]1 | active: 17.8 µM |
| CCc1nnc(NC(=O)c2cc(-c3ccco3)nc3ccccc23)s1 | active: 39.8 µM |
| Cc1cc(Cl)cc2c(N=Nc3ccccc3C(=O)O)c(O)[nH]c12 | inconclusive: 39.8 µM [inhibitor, partial curve] |
| O=C(C[n+]1cn(C(F)F)c2ccccc21)c1ccc(Br)cc1 | active: 50.1 µM |
| Cc1c(Cl)cccc1-n1ncc(C(=O)NCc2cccs2)c1C1CCN(C(=O)OC(C)(C)C)CC1 | inactive |
| Cc1ccc(C(=O)/C=C/c2ccc(-c3ccc(C)cc3)o2)cc1 | inactive |
| CCNc1ccc(Br)cc(C(=O)/C=C/c2ccc3c(c2)OCO3)c1=O | active: 22.4 µM |

| SMILES | Potency |
| --- | --- |
| Cc1cc(=O)oc2cc(NC(=O)c3cc4ccccc4o3)ccc12 | inconclusive: 89.1 µM [inhibitor, single point] |
| Cc1ccc(/C=c2/sc3n(c2=O)CCCN=3)o1 | inactive |
| Cc1ccc(S(=O)(=O)N2CCOC2CNC(=O)C(=O)NCc2ccc3c(c2)OCO3)cc1 (centres undefined) | inactive |
| CNCCCCOc1ccc(C(C)(C)C)cc1Cl | inconclusive: 56.2 µM [inhibitor, partial curve] |
| COc1ccc(-n2c(Cc3cccn3C)nnc2SCC(=O)Nc2cccc(Cl)c2)cc1 | inconclusive: 50.1 µM [inhibitor, partial curve] |
| COc1ccc(-c2nc(C#N)c(N3CCC(C)CC3)o2)cc1 | active: 5.01 µM |
| COc1ccc2[nH]c(=O)c(CN(C(=O)c3ccco3)C3CCCCC3)cc2c1 | inactive |
| CCOc1ccc(C(=O)CCC(=O)Nc2ncccc2O)cc1 | active: 56.2 µM |
| C/C(=N\O)c1c(O)cc(-c2ccccc2)n(-c2ccccc2)c1=O | inconclusive: 89.1 µM [inhibitor, single point] |
| COC(=O)C1=C(C(=O)c2ccc(C)cc2)C(c2ccc(OC)c(OC)c2)n2nnnc2N1 (centres undefined) | inconclusive: 28.2 µM [inhibitor, partial curve] |
| CC(C)c1ccc2c(c1)C(c1cccs1)=NNC(c1ccncc1)=N2 | inconclusive: 50.1 µM [inhibitor, partial curve] |
| COc1cc(/C=N/Nc2ccc(Cl)c(C(=O)O)c2)ccc1OC(=O)c1ccccc1F | inconclusive: 50.1 µM [inhibitor, partial curve] |
| O=C(Cc1cccs1)NCC1CCCO1 (centres undefined) | inconclusive: 89.1 µM [inhibitor, single point] |
| COc1cccc(-c2nn(C)c3sc(C(=O)Nc4ccc5c(c4)OCCO5)cc23)c1 | inconclusive: 89.1 µM [inhibitor, single point] |
| O=C1N(c2ccccc2)c2ccccc2C1(Cc1ccncc1)Cc1ccncc1 | inconclusive: 79.4 µM [inhibitor, single point] |
| COCCn1ccc2c(OCC(=O)Nc3ccccc3F)cccc2c1=O | inactive |
| Cc1ccc(Nc2nc(CSc3nnc(-c4ccc(F)cc4)n3C)cs2)cc1 | inconclusive: 50.1 µM [inhibitor, partial curve] |
| O=C(Nc1ccc(N2CCCC2)cc1)c1cc([N+](=O)[O-])ccc1N1CCOCC1 | inconclusive: 7.94 µM [inhibitor, full curve] |
| CCCCn1c2c(c(=O)n(C)c1=O)C(CC(=O)OCC(=O)Nc1cccc(C(F)(F)F)c1)C(=O)N2 (centres undefined) | inactive |
| O=C(O)CCc1ccc(-c2cccs2)n1NC(=O)c1cccs1 | inconclusive: 79.4 µM [inhibitor, single point] |
| COc1cc(NC(=O)c2nc3ccccc3nc2N2CCCCC2)cc(OC)c1OC | inconclusive: 44.7 µM [inhibitor, partial curve] |
| CCOC(=O)COc1ccc(Br)cc1/C=C1\SC(N)=NC1=O | inconclusive: 89.1 µM [inhibitor, single point] |
